Where a chain is given by its changes, count along the chain named. “Also recorded” adds a separate entry of the source.
Experiments:
human cKIT ECD = target: T1, human cKIT ECD (Homo sapiens, UniProt P10721); experiment: Affinity measurement of cKIT antibodies to human cKIT ECD; type: binding; settings: read-out: KD (pM) to human cKIT ECD in SET
T1 construct: residues 26-520-TAG; made in house; host or cells: HEK293 derived cell line 293FS, transient transfection

[1] = tested on: human peripheral blood HSC-derived mast cells; experiment: In vitro human mast cell degranulation assay (beta-hexosaminidase release); type: cell-based; settings: test agents 0.006-25 nM cross-linked with antibody specific for the Fab portion; absence of SCF
Procedure: Mature mast cells were generated using CD34+ progenitors from mobilized peripheral blood. CD34+ cells were cultured in StemSpan SFEM (StemCell Technologies) supplemented with recombinant human stem cell factor (rhSCF, 50 ng/ml, Gibco), recombinant human interleukin 6 (rhIL-6, 50 ng/ml, Gibco), recombinant human IL-3 (30 ng/ml, Peprotech), GlutaMAX ([…], Gibco), penicillin (100 U/ml, Hyclone) and streptomycin (100 μg/ml, Hyclone). Recombinant hll-3 was added only during the first week of the culture. After the third week, half of the medium was replaced weekly with fresh medium containing rhIL-6 (50 ng/ml) and rhSCF (50 ng/ml). Mature mast cell purity was evaluated by surface staining of high-affinity IgE receptor (FCεRI, eBioscience) and CD117 (BD). Cells were used between week 8 and 12 of the culture.
The derived mast cells were washed once to remove SCF, and the required amount of cells was incubated overnight in mast cell medium containing rhIL-6 (50 ng/ml) with or without rhSCF (50 ng/ml). As positive control for mast cell degranulation, a portion of the cells were sensitized with human myeloma IgE (100 ng/ml, EMD Millipore). The following day, anti-cKIT antibody or antibody fragments or toxin conjugates thereof, mouse monoclonal anti-human IgG1 (Fab specific, Sigma), goat anti-human IgE (Abcam) and compound 48/80 (Sigma) dilutions were prepared in HEPES degranulation buffer (10 mM HEPES, 137 mM NaCl, 2.7 mM KCl, 0.4 mM sodium phosphate dibasic, 5.6 mM glucose, pH adjusted at 7.4 and mixed with 1.8 mM calcium chloride and 1.3 mM magnesium sulfate) supplemented with 0.04% bovine serum albumin (BSA, Sigma). Test agents and anti-IgG1 were mixed together in a V-bottom 384-well assay plate while anti-IgE and compound 48/80 were tested alone. The assay plate was incubated 30 min at 37° C. During the incubation, cells were washed 3 times with HEPES degranulation buffer+0.04% BSA to remove medium and unbound IgE. Cells were resuspended in HEPES degranulation buffer+0.04% BSA and seeded at 3000 cells per well in the assay plate for a final reaction volume of 50 μl. Cells that were sensitized with IgE were used only with anti-IgE as a positive control for degranulation. The assay plate was incubated 30 min at 37° C. for degranulation to occur. During this incubation, p-nitro-N-acetyl-pi-D-gluosamine (pNAG, Sigma) buffer was prepared by sonicating 3.5 mg/ml of pNAG in citrate buffer (40 mM citric acid, 20 mM sodium phosphate dibasic, pH 4.5). β-hexosaminidase release was measured by mixing 20 μl of cell supernatant with 40 μl of pNAG solution in a flat-bottom 384-well plate. This plate was incubated for 1.5 hour at 3700, and the reaction was stopped by the addition of 40 μl of stop solution (400 mM glycine, pH 10.7). Absorbance was read using a plate reader at λ=405 nm with reference filter at λ=620 nm.
Mature mast cells were generated and tested with anti-cKIT antibody and F(ab′)2 and Fab fragments as described in Example 6.

rat cKIT = experiment: Cross reactivity of cKIT antibodies to rat cKIT; type: binding
mouse cKIT = target: T2, mouse cKIT (Mus musculus, UniProt P05532); experiment: Cross reactivity of cKIT antibodies to mouse cKIT; type: binding
T2 construct: 3.125-50 nM of cKIT receptor extracellular domains (ECD) were diluted in a 2-fold series; purchased Sino Biological Inc 50530-M08H
T2 sequence (P05532 25-527 limits assumed): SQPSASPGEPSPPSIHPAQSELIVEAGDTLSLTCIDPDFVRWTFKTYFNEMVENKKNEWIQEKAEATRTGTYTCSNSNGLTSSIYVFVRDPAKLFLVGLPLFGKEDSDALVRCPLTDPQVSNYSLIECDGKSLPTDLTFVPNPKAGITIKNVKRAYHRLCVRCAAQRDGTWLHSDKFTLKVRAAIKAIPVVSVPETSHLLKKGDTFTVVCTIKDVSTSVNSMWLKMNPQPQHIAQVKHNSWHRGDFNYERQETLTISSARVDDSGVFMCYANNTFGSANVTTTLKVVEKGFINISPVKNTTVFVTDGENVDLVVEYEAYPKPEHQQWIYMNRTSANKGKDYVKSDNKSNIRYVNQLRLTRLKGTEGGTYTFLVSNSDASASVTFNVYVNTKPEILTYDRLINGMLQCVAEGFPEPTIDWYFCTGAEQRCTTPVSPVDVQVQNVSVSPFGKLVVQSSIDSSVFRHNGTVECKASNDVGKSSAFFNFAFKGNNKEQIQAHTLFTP

[2] = tested on: human HSCs in humanized NSG mice; experiment: In vivo ablation of human HSCs from mouse host; settings: 10 mg/kg twice per day for 2 days intraperitoneally, bone marrow analyzed day 21

T1 sequence (P10721 with tags, fused parts or gaps isoform P10721-2): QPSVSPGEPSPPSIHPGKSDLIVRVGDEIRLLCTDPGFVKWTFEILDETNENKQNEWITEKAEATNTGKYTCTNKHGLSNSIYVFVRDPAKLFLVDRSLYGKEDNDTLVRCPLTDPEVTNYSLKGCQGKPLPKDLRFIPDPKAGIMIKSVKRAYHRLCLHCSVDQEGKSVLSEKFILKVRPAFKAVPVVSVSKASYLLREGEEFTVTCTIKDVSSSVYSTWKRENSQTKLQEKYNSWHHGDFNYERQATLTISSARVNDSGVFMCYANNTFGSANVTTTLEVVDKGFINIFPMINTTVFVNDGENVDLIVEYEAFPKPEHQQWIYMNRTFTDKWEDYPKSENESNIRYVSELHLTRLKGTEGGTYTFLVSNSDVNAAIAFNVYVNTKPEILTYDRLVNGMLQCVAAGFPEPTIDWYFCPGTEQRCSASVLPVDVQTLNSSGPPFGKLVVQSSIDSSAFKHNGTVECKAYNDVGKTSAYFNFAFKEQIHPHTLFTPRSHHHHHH

B1: Anti-cKIT Ab3: full length anti-cKIT antibody, heavy chain SEQ ID NO: 56, light chain SEQ ID NO: 25 (antibody)
heavy: QVQLVQSGAEVKKPGSSVKVSCKASGGTFSSYAISWVRQAPGQGLEWMGTIGPFEGQPRYAQKFQGRVTITADESTSTAYMELSSLRSEDTAVYYCARGGYISDFDVWGQGTLVTVSSASTKGPSVFPLAPSSKSTSGGTAALGCLVKDYFPEPVTVSWNSGALTSGVHTFPAVLQSSGLYSLSSVVTVPSSSLGTQTYICNVNHKPSNTKVDKRV[human IgG1 Fc left out]
light: DIQMTQSPSSLSASVGDRVTITCRASQSISNYLAWYQQKPGKAPKLLIYDASSLQSGVPSRFSGSGSGTDFTLTISSLQPEDFATYYCQQYYYESITFGQGTKVEIKRTVAAPSVFIFPPSDEQLKSGTASVVCLLNNFYPREAKVQWKVDNALQSGNSQESVTEQDSKDSTYSLSSTLTLSKADYEKHKVYACEVTHQGLSSPVTKSFNRGEC
- Kd (human cKIT ECD): 160 pM
- mast cell degranulation (beta-hexosaminidase release) when cross-linked [1]: caused mast cell degranulation when cross-linked
- Reactivity to rat cKIT (rat cKIT): Not
- Reactivity to mouse cKIT (mouse cKIT): Not

B2: Anti-cKIT Ab2: full length anti-cKIT antibody, heavy chain SEQ ID NO: 38, light chain SEQ ID NO: 49 (antibody)
heavy: QVQLVQSGAEVKKPGSSVKVSCKASGGTFSSHALSWVRQAPGQGLEWMGGIIPSFGTADYAQKFQGRVTITADESTSTAYMELSSLRSEDTAVYYCARGLYDFDYWGQGTLVTVSSASTKGPSVFPLAPSSKSTSGGTAALGCLVKDYFPEPVTVSWNSGALTSGVHTFPAVLQSSGLYSLSSVVTVPSSSLGTQTYICNVNHKPSNTKVDKRV[human IgG1 Fc left out]
light: B1 light with S28D, N31Q, Y32D, T85V, E94L, S95P, I96S
- mast cell degranulation (beta-hexosaminidase release) when cross-linked [1]: caused mast cell degranulation when cross-linked
- Reactivity to rat cKIT (rat cKIT): Not
- Reactivity to mouse cKIT (mouse cKIT): Not

B3: Anti-cKIT Ab1: full length anti-cKIT antibody, heavy chain SEQ ID NO: 12, light chain SEQ ID NO: 25 (antibody)
heavy: B1 heavy with T50V, G52F, F54A, Q57A, R59G
light: B1 light
- mast cell degranulation (beta-hexosaminidase release) when cross-linked [1]: caused mast cell degranulation when cross-linked
- Reactivity to rat cKIT (rat cKIT): Not
- Reactivity to mouse cKIT (mouse cKIT): Not

B4: J30 (conjugate)
heavy: QVQLVQSGAEVKKPGSSVKVSCKASGGTFSSYAISWVRQAPGQGLEWMGVIFPAEGAPGYAQKFQGRVTITADESTSTAYMELSSLRSEDTAVYYCARGGYISDFDVWGQGTLVTVSSASTKGPSVFPLAPSSKSTSGGTAALGCLVKDYFPEPVTVSWNSGALTSGVHTFPAVLQSSGLYSLSSVVTVPSSSLGTQTYICNVNHKPSNTKVDKRVEPKSCDKTHTCPPCPAP
light: B1 light
modifications: LP2 linker-payload, DAR 4
- human HSCs (human CD45+, human CD34+, human CD38-) in bone marrow [2]: showed reduced human HSCs; also recorded: able to ablate human HSCs in vivo

— US20210228731A1, “ANTIBODY DRUG CONJUGATES FOR ABLATING HEMATOPOIETIC STEM CELLS” (NOVARTIS AG, priority 2018, published 2021)
